Where “and” joins values, the source holds several entries; their conditions need not be identical. Equal entries are not always repeated. The campaign covered roughly 48,000 compounds. About 1,200 (2.5%) were called active. Roughly 2% stayed inconclusive and do not appear here.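 The calls were made as follows: active = activation of at least 60% and not above a set upper limit (about 1 call in 100 departs from these limits); inconclusive = activation of 40% to 60%, or above that upper limit; inactive = activation under 40%.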 The list shows a part of the results.

Sequence of UniProt O75388 (O75388 whole entry, looked up, the tested form may be a part): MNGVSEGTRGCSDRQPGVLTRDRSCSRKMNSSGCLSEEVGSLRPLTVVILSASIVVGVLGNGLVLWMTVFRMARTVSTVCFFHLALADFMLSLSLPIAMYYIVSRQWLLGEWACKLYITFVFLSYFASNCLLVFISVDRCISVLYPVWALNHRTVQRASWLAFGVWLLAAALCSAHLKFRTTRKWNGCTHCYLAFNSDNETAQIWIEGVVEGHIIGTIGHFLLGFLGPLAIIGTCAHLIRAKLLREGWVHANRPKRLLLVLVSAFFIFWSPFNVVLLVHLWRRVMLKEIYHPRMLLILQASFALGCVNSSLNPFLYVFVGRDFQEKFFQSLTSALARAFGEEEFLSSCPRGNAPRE

For this experiment, the target named is Probable G-protein coupled receptor 32 (Homo sapiens) (UniProt O75388). The experiment is described as follows: qHTS for Agonists of Human Resolvin D1 Receptor DRV1. Also: 0% is about no effect. The settings on record: CHO-K1 GPR32 beta-arrestin PathHunter luminescence, 90 min; at 76.9 µM; active compounds read high; zero percent set by DMSO-only wells. The gist of the method:
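Agonism was scored as beta-arrestin recruitment to ProLink-fused GPR32 in stably transfected CHO-K1 cells, giving a chemiluminescent beta-Gal signal; compounds were incubated 90 min at 37 °C.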
Regarding `COCCCNC(=O)CCCn1c(=O)c2cccn2c2ccccc21`, the activation was inactive: -3.23%.
For the molecule `CCOC(=O)c1c(C)c(-c2ccccc2)n(CC(=O)Nc2cc(C)cc(C)c2)c1C`, the activation is inactive: -23%.
The same measure for `Cc1ccc(N2CCN(S(=O)(=O)c3ccc(Cl)c4ccccc34)CC2)c(C)c1`: inactive: -13.2%; for `O=C1CCCc2cc(S(=O)(=O)NCC3CCC(C(=O)NCc4ccc(F)cc4)CC3)ccc2N1` (configuration not stated): inactive: -41.1%; for `O=C(CSc1nnc(-c2cccc(F)c2)c(-c2cccc(F)c2)n1)NC1CCCCC1`: inactive: -13.5%.
The same measure for `COc1ccc(-n2nc3c(N4CCC(C(=O)NCCc5ccccc5)CC4)nnc(C)c3c2C)cc1`: inactive: 5.99%.
The same measure for `COc1cccc(CSc2nc(-c3ccccc3F)nc3c2Cc2c(CO)cnc(C)c2O3)c1`: inactive: 5.73%; for `O=C(Cn1ncc2c(=O)oc3ccccc3c21)N1CCN(c2ccc(Cl)cc2)CC1`: inactive: 18.4%; for `CC(C)(C)c1ccc(C(=O)N(Cc2ccc(F)cc2)Cc2ccco2)cc1`: inactive: -15.2%.
With `Cc1ccc(-c2nnc(Nc3ccccc3)c3ccccc23)cc1S(=O)(=O)N1CCN(C)CC1`, the activation was inactive: 3.3%.
As for `CCOC(=O)c1c(NC(=O)COc2ccccc2Br)sc2c1CCCCC2`, the figure is inactive: -9.87%; as for `COc1cc(Cl)c(C)cc1NC(=O)c1cnn(-c2ccc(F)cc2F)c1C1CCN(C(=O)OC(C)(C)C)CC1`, inactive: -12.1%.
Take `COc1ccc2cc(CNc3ccc(C)cc3)c(=O)n(CC(=O)Nc3cccc(Cl)c3C)c2c1`: the activation was inactive: -24.1%.
As to `O=C(Nc1ccc(F)c(Cl)c1)Nc1c[nH]c(=O)[nH]c1=O`, the activation was inactive: 6.1%.
The same measure for `O=C(CSc1nc(=O)n(CCN2CCOCC2)c2c1CCC2)Nc1ccc(Cl)c(Cl)c1`: inactive: -7.94%; for `CC(CNC(=O)c1cnn(-c2ccc(F)cc2)c1-n1cccc1)c1ccccc1` (configuration not stated): inactive: 11.9%; for `CC(=O)Nc1ccccc1-c1nc2ccccc2n(CC(=O)Nc2cccc(C)c2C)c1=O`: inactive: -10.3%.
The same measure for `Cc1ccc2nc(SCc3nc(-c4ccc(Cl)cc4)no3)[nH]c2c1`: inactive: 17.7%; for `Cc1cc(C)cc(N2C(=O)CSC23C(=O)N(Cc2c(F)cccc2Cl)c2ccccc23)c1` (configuration not stated): inactive: -0.301%; for `CCOC(=O)c1cc(-c2ccccc2)n(CCC(=O)Nc2ccccc2CC)c1C`: inactive: -14.3%.
As for `Cc1cc2c(cc1S(=O)(=O)Nc1cccc(Cl)c1C)n(C)c(=O)c(=O)n2C`, the figure is inactive: -2.19%; as for `COc1ccc(C2CC(=O)N(Cc3ccc(C)cc3)c3c2c(C)nn3-c2nc(C)cc(C)n2)c(OC)c1` (configuration not stated), inactive: 0.504%; as for `Cc1cccc2nc(-c3ccccn3)c(Nc3ccc(F)cc3)n12`, inactive: -95.1%.
Turning to `Cc1cccc(CSc2nc3c([nH]c4ccccc43)c(=O)n2C)c1`, the activation is inactive: -4.35%.
As for `CCCCC12CN3CC(C)(CN(C1)C3c1c[nH]c3ccccc13)C2=O` (configuration not stated), the figure is inactive: -22.4%; as for `CCCCC(CC)CNC(=O)Cc1ccc(-n2c(=O)[nH]c3ccccc3c2=O)cc1` (configuration not stated), inactive: 2.06%.
Consider `CCOc1ccc(CC(=O)Nc2c(C(=O)c3ccccc3)oc3ccc(Cl)cc23)cc1OCC`, for which the activation was inactive: -2.83%.
The same measure for `CC(=O)N1c2ccc(S(=O)(=O)Nc3ccc(C)c(Cl)c3)cc2CC1C` (configuration not stated): inactive: 45.2%.
As for `COc1ccc(N2CCN(S(=O)(=O)c3ccc(-c4coc(C)n4)cc3)CC2)cc1`, the figure is inactive: 43%; as for `Cc1cc(Nc2ccc(F)cc2F)nc(-n2nc(C)cc2C)n1`, inactive: -18.3%.
Consider `CCc1cc2c(cc3c(=O)n(CCCC(=O)NCc4cccc(Br)c4)ncn32)s1`, for which the activation was inactive: 3.1%.
The same measure for `Cc1c(CCNC(=O)c2ccc(C(C)(C)C)cc2)sc2nc(-c3ccc(F)cc3)nn12`: inactive: -6.61%; for `CC1=C(C(=O)Nc2cccnc2)C(c2ccc(C)cc2)n2nc(SCc3ccccc3F)nc2N1` (configuration not stated): inactive: 8.25%; for `COc1cc2c(cc1OC)n(CC(=O)c1cc(C)ccc1C)c(=O)n1nc(CCn3nc(C)cc3C)nc21`: inactive: -7.43%.
In the case of `CNS(=O)(=O)c1cn(CC(=O)N2CCN(c3ccc(C(C)=O)cc3)CC2)cc1S(=O)(=O)NC`, the activation is inactive: -6.9%.
As for `Cc1ccc(NC(=O)C(CC(C)C)N2Cc3ccccc3C2=O)cc1F` (configuration not stated), the figure is inactive: -7.26%.
The same measure for `CCOc1ccc(CCNC(=O)c2c(C)oc3ncn(CC(C)C)c(=O)c23)cc1OCC`: inactive: -16.6%; for `CCCNC(C)C(=O)Nc1ccccc1C` (configuration not stated): inactive: -8.21% and inactive: 2.77%; for `CC(=O)N1CCc2c(sc3c2c(=O)n(-c2ccccc2)c(=O)n3CC(=O)Nc2cc(C)cc(C)c2)C1`: inactive: -10.5%.
As for `COc1ccc(CN(CCN(C)C)c2ccccn2)cc1`, the figure is inactive: 15.7% and inactive: -6.18%; as for `CCCCCc1ccc(-c2ccc(Br)cc2)nc1`, inactive: 10.5%; as for `Cc1ccc(-n2nc(C(=O)N3CCN(c4ccccc4F)CC3)c(=O)n(C)c2=O)cc1`, inactive: -1.28%.
As for `Nc1ncn([C@@H]2O[C@H](CO)[C@@H](O)[C@H]2O)c(=O)n1`, the activation is inactive: -18.2% and inactive: 6.48%.
The same measure for `O=C(NCc1ccccc1F)C(=O)NCC(c1ccc2c(c1)OCO2)N1CCOCC1` (configuration not stated): inactive: -6.64%.
For the molecule `CC(COc1ccccc1)N(CCCl)Cc1ccccc1` (configuration not stated), the activation was inactive: -17.1% and inactive: -11.7%.
The same measure for `Cc1cc(Br)ccc1NC(=O)CSc1c2c(nc3ccccc13)CCC2`: inactive: -30.7%; for `CCc1ccc(NC(=O)CSc2nc(C)c(C(=O)Nc3ccccc3)c(-c3ccc(OC)c(OC)c3)c2C#N)cc1`: inactive: -12.9%; for `CCOc1ccc(CNC(=O)CCc2c(C)nn(-c3ccc(N4CCCCC4)nn3)c2C)cc1`: inactive: -18.4%.
The same measure for `CSc1ccc(CCNC(=O)c2cc(C)nc3c2c(C)nn3-c2cccc(F)c2)cc1`: inactive: -5.43%; for `CC(C)(C)C(=O)CSc1nc2ccsc2c(=O)n1Cc1ccccc1Cl`: inactive: -28.1%.
In the case of `CCOc1ccccc1NC(=O)CSc1nc2c(oc3ccccc32)c(=O)n1-c1ccc(F)cc1`, the activation was inactive: -42.1%.
As for `COc1cccc(CSc2nc3n(n2)C(c2ccc(C(=O)O)cc2)C(C(=O)Nc2ccccc2)=C(C)N3)c1` (configuration not stated), the figure is inactive: 17.4%; as for `O=C(OCc1cc(=O)n2nc(-c3cccs3)sc2n1)c1ccccc1Cl`, inactive: 8.76%.
The same measure for `CNc1ncnc2c1ncn2[C@H]1C[C@H](OP(=O)(O)O)[C@@H](COP(=O)(O)O)O1`: inactive: 1.93%; for `COc1ccccc1N1CCN(c2ccc(=O)n(CC(=O)NCc3ccc(F)cc3)n2)CC1`: inactive: 20.9%.
In the case of `COc1ccc(NC(=O)c2cc3cc(C)ccc3[nH]2)cc1`, the activation was inactive: -5.71%.
For `CSc1ccccc1-c1nnc(NC(=O)c2ccc3c(c2)OCCO3)o1`, the activation is inactive: -21.8%.
Regarding `Cc1c(C(=O)N2CCCCCC2)c(S(=O)(=O)NCc2ccccc2)c(C)n1C`, the activation is inactive: -15.3%.
As for `Oc1ccc(-c2nc3ccc(Cl)cn3c2Nc2ccc(Cl)cc2)cc1`, the figure is inactive: 18.4%.
As for `O=C(c1cc2c(Cl)nc3ccccc3c2s1)N1CCCCC1`, the figure is inactive: 49.1%.
For the molecule `Cc1ccc(CNS(=O)(=O)c2cnc(N)nc2)cc1`, the activation is inactive: -11.3%.
With `Cc1ccccc1NC(=O)Cn1nc(-c2ccccc2)nc(Cc2ccccc2)c1=O`, the activation was inactive: -11.6%.
The same measure for `COc1ccc(Cn2ccc3nc(C)c(C(=O)NCc4ccc(SC)cc4)cc3c2=O)cc1`: inactive: -3.63%; for `CCSC(=N)N`: inactive: -0.818%; for `CCc1ccc2ncc3c(-c4ccc(C)cc4)nn(CC(=O)NCc4ccccc4)c3c2c1`: inactive: 3.11%.
As for `COc1ccc(CNC(=O)CSc2nnc(C)c3c(C)n(-c4ccccc4)nc23)c(OC)c1`, the figure is inactive: -12.9%; as for `O=C(CSc1nc2ccccc2n1Cc1cccc(F)c1)NCc1ccccc1`, inactive: -25.7%.
As to `COc1ccc(-c2nc3sc(CCNC(=O)C(=O)Nc4ccc(OC)c(OC)c4)c(C)n3n2)cc1`, the activation is inactive: -3.11%.
On to `COc1ccc(Br)cc1Cn1nnc(C(=O)Nc2cccc(SC)c2)c1N`, for which the activation was inactive: -4.54%.
For `Cc1ccccc1Cn1c2ccccc2c2cnn(CC(=O)NC3CCCCCC3)c(=O)c21`, the activation is inactive: -6.7%.
In the case of `CC(C)CCNC(=O)Cn1nc(N2CCN(c3ccccc3)CC2)ccc1=O`, the activation is inactive: -16.3%.
The same measure for `CCOC(=O)c1sc2ncn(CC(=O)Nc3ccc(OC)c(Cl)c3)c(=O)c2c1C`: inactive: -0.158%; for `CN(CC(=O)Nc1cccc(F)c1)S(=O)(=O)c1ccc2c(c1)n(C)c(=O)c(=O)n2C`: inactive: -12.3%; for `Cc1ccc(NC(=O)c2ccc(CN3CC(=O)N4CCCCC4C3=O)cc2)c(Cl)c1` (configuration not stated): inactive: -8.29%.
The same measure for `COc1ccc(OC)c(C2C(C(=O)Nc3ccc(C)cc3)=C(C)Nc3nnnn32)c1` (configuration not stated): inactive: -3.75%.
As for `CN1CCN(C(=O)c2ccc3c(c2)N(Cc2ccc(C(F)(F)F)cc2)C(=O)c2ccccc2S3)CC1`, the figure is inactive: 3.62%.
Regarding `COc1ccc(S(=O)(=O)NCc2nc(-c3ccccc3)no2)cc1`, the activation is inactive: -20.3%.
For `CC(=O)c1cccc(NC(=O)CSc2ncc3c(n2)-c2cc(Cl)ccc2N(Cc2ccccc2)S3(=O)=O)c1`, the activation is inactive: 9.47%.
For the molecule `COc1cc(CNC(=O)c2cc3n(n2)CCCN(Cc2cccc(F)c2)C3=O)cc(OC)c1OC`, the activation was inactive: -1.89%.
The same measure for `O=C(CC(c1cccs1)N1Cc2ccccc2C1=O)Nc1ccc(F)cc1` (configuration not stated): inactive: -2.73%; for `CSc1cccc(NC(=O)c2cc3c(COC(C)=O)cnc(C)c3oc2=O)c1`: inactive: -10%; for `Cc1ccc(-n2ncc(C(=O)NCc3ccc4c(c3)OCO4)c2C2CCN(C(=O)OC(C)(C)C)CC2)c(C)c1`: inactive: -64.5%.
